# Laboratory results as given in publication PMC4336329 (PLoS ONE, 2015).
# The whole screen tested about 310,000 compounds, of which about 2,200 (0.71%) showed an effect of 50% or more. The effect is printed as a negative number. The list shows a part of the results.
# Biological target: human ether-à-go-go-related gene (hERG) potassium channel (human, UniProt Q12809)
# Assay: primary screen, population patch clamp on CHO cells stably expressing hERG
# human ether-à-go-go-related gene (hERG) potassium channel, sequence (Q12809 whole entry, looked up): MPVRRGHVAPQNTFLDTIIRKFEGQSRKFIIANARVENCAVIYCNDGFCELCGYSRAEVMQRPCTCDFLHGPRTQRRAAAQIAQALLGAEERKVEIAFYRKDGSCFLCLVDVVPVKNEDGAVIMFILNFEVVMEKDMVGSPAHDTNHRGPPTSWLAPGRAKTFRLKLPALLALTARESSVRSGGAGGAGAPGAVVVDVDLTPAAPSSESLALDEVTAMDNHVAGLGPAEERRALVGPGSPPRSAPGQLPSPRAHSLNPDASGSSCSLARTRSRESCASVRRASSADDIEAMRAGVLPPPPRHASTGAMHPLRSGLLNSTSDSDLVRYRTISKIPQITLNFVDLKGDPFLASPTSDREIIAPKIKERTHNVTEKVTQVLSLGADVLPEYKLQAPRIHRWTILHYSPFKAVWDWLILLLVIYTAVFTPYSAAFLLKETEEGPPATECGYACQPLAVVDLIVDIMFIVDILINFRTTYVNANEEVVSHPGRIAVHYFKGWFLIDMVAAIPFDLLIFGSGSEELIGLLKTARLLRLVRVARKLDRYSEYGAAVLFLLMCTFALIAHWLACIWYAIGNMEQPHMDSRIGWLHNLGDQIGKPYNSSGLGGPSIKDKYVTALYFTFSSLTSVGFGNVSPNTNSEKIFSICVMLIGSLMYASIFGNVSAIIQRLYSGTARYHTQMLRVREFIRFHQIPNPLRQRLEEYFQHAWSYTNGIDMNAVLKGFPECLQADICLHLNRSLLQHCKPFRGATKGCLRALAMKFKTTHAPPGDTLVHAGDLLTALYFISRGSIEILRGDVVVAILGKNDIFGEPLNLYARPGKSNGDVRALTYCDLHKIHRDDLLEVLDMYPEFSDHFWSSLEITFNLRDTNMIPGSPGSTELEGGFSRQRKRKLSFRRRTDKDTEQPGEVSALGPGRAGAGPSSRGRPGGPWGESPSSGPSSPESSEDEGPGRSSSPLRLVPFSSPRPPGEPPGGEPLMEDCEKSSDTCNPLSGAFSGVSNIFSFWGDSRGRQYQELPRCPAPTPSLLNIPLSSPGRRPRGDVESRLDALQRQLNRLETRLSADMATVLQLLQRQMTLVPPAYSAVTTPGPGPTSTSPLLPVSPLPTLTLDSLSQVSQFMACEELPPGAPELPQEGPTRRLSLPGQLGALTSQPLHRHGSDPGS
row,SMILES,"hERG current change (%, negative = inhibition) at 1uM"
1,O=C(CSc1nccc(=O)[nH]1)N1CCCc2ccccc21,11%
2,COc1ccc(OC)c2sc(NNC(=O)COc3ccccc3)nc12,10.1%
3,O=C(c1sc2cc(F)ccc2c1Cl)N1CCN(c2ccccc2)CC1,8.99%
4,NC(=O)c1ccc(Cn2c(C(=O)c3cc(Cl)c(N)c(Cl)c3)c3ccccc3[n+]2[O-])cc1,3.92%
5,CC(=O)Nc1ccc(S(=O)(=O)c2cc(O)ccc2O)cc1,16%
6,CCOC(=O)c1c(C)[nH]c(C(=O)Cn2nnc(-c3ccccc3)n2)c1C,7.85%
7,CCn1c(SCC(=O)NCc2ccccc2)nc2nc3c(cc2c1=O)CCCC3,-0.499%
8,COc1ccc(-c2nnc(SCC(=O)NC3CCCC3)n2C)cc1,12.5%
9,COc1ccc(NC(=S)Nc2nc(CC(=O)Nc3ccccc3OC)cs2)cc1,1.25%
10,c1cc(CNc2ccc3c(c2)OCO3)ccn1,8.74%
11,O=C(Nc1ccccc1C(=O)O)c1cccc(C(=O)Nc2ccccc2C(=O)O)c1,17.9%
12,COc1ccc(COC(=O)c2ccc(Cl)c(S(=O)(=O)N3CCOCC3)c2)cc1F,-15.4%
13,Cc1ccsc1C1C(C(=O)O)c2ccccc2C(=O)N1C (stereo not drawn),12.3%
14,COc1cccc(C(=O)Nc2cc(OC)ccc2NC(=O)c2ccco2)c1,14%
15,CCOC(=O)c1cccc(NC(=O)C2CCCN(S(=O)(=O)c3c(C)n[nH]c3C)C2)c1 (stereo not drawn),14.5%
16,Cc1ccccc1OCC(O)Cn1c(NCc2ccccc2)nc2c1c(=O)[nH]c(=O)n2C (stereo not drawn),0.772%
17,Cc1noc(C)c1C(=O)N1CCN(S(=O)(=O)c2ccc(F)cc2)CC1,9.01%
18,CC(C)CC(=O)Nc1nnc(CSCc2ccc(F)cc2)s1,8.12%
19,Cn1cccc1CC(=O)N/N=C/c1ccco1,15.6%
20,Cl.OCCN1CCN(CC(O)COCc2ccc3c(c2)OCO3)CC1 (stereo not drawn),5.06%
21,CCOC(=O)C1=C(COC(=O)/C=C/c2ccc(SC)cc2)NC(=O)NC1C (stereo not drawn),7.54%
22,CC(OC(=O)c1ccccc1NCCO)C(=O)Nc1ccnn1C(C)C (stereo not drawn),14.1%
23,O=C(CN1CCN(c2ccc([N+](=O)[O-])cc2Cl)CC1)N1CCOCC1,-11%

row,SMILES,"hERG current change (%, negative = inhibition) at 1uM"
1,COc1ccc(NS(=O)(=O)c2ccc(C)c(C(=O)NNC(=O)c3ccccc3O)c2)cc1,9.22%
2,c1ccc(NC(c2ccccc2)c2ccncc2)cc1 (stereo not drawn),2.05%
3,CCOC(=O)c1c(N=CN(C)C)c2cc([N+](=O)[O-])cnc2n1C,4.88%
4,CC(=O)Nc1nonc1-c1nc2ccccc2n1C,11.8%
5,CCCCn1c(=O)[nH]c(=O)c2c1nc(-c1cc(Br)c(OCC)c(OC)c1)n2C,2.38%
6,CCOC(=O)N1CCN(C(=O)CN(C)S(=O)(=O)c2ccc(OC)c(OC)c2)CC1,10.8%
7,COCCn1c(C)cc(C2=NNC(=NC(C)(C)C)SC2)c1C,12.5%
8,Cc1cc(NC(=O)COC(=O)c2ccc(S(=O)(=O)N3CCCc4ccccc43)cc2)no1,3.71%
9,O=C(COc1ccc(C(=S)N2CCC(Cc3ccccc3)CC2)cc1)N1CCOCC1,6.4%
10,O=C(c1cccs1)c1coc2ccc(O)cc12,8.05%
11,CCn1c(=O)n(CC(=O)NC2CCCC(C)C2C)c(=O)c2ccccc21 (stereo not drawn),-1.43%
12,Clc1ccc(Nc2nc(-c3ccncc3)cs2)cc1,7.92%
13,COc1cc2sc(NC(=O)c3ccco3)nc2cc1Cl,12.7%
14,CCC(=O)N(Cc1cc2c(C)cc(C)cc2[nH]c1=O)C1CCCCC1,-0.212%
15,COc1ccc(-c2cn3c(C)c(C(=O)NC(C)C)sc3n2)cc1,7.93%
16,O=C(COC(=O)CNC(=O)C1CCCCC1)Nc1ccccc1Cl,22.1%
17,CCOC(=O)/C(C#N)=N/Nc1ccccc1C(=O)O,16.4%
18,CCOC(=O)Cn1c(=NC(=O)C(C)C)sc2c(C)cc(C)cc21,6.6%
19,Cc1ccc(-c2nnc(NC3CCCC3)s2)cc1,-1.73%
20,Cc1ccccc1C(=O)NNc1ccc(-c2csnn2)cc1,-4.49%
21,COC(=O)[C@H](CC(C)C)NC(=O)NC1CCCCC1C (stereo partly drawn),8.65%
22,CC(C)C(CCN1C(=O)c2ccccc2C1=O)c1ccco1 (stereo not drawn),-0.472%
